# Measured values from PubChem BioAssay (NCATS).
# This list was built around the results that the source calls inconclusive (neither active nor inactive); the mix of calls is not that of the screen. Potencies beside an inconclusive call are fits to weak or partial responses and may not hold up. Activity calls are given as the source filed them. Calls follow the shape of the dose curve; as a rule, active = well fitted activation curve with a large enough effect; inconclusive = small, poorly fitted or top-dose-only effect; inactive = no such curve, though single readings can be large or run the other way.
# Target: Cellular tumor antigen p53 (Homo sapiens) (UniProt P04637)
# Chain of UniProt P04637 (P04637 whole entry, looked up): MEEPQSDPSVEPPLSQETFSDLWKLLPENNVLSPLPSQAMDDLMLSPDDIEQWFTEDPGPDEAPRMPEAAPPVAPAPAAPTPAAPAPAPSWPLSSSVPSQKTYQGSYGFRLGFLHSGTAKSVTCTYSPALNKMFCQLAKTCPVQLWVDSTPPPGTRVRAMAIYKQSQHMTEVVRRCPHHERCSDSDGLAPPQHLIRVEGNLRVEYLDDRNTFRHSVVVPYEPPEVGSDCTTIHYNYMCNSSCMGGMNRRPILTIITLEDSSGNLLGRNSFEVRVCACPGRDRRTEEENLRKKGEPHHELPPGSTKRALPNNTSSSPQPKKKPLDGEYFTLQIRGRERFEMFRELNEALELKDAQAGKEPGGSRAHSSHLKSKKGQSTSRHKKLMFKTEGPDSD
# Experiment: Primary qHTS for small molecule compounds that upregulate eGFP-tagged delta133p53alpha (in N-terminal) cells. (AID 2060322); also: nearly all actives have a fitted effect of over 75% in size;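 as to activation: series mostly up to about 56 µM; 0% = DMSO vehicle and 100% = reference activator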
# Conditions: NCI-H358 eGFP-delta133p53alpha fluorescence, 24 h; activation: active compounds read high
# Summary of the method: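 NCI-H358 cells pre-induced 24 h with 10 ng/ml doxycycline to express N-terminal eGFP-delta133p53alpha, then dosed 24 h at 37C without doxycycline; fixed, Hoechst-stained, GFP intensity by laser scanning cytometry, normalized to DMSO (0%) and 57.5 uM 5-azacytidine (100%).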
# Potency is read from the fitted curve at half-maximal effect; tags tell the direction and shape of the fitted curve.
SMILES,Potency,activation
COC(=O)C(CC1(O)c2ccccc2N2C(=O)C(C)(C)N(O)C21)n1cnc2ccccc2c1=O (centres undefined),"inconclusive: 8.28 µM [activator, partial curve]",–
C[C@]12CCC[C@](C)(C(=O)O)C1[C@@H](O)[C@@H](O)C13CC(CCC12)C(CO)(O[C@@H]1O[C@H](CO)[C@@H](O)[C@H](O)[C@H]1O)C3 (some centres undefined),–,inactive: -9.16%
Cc1cccc(C)c1NC(=O)CN1CCN(CCCC(c2ccc(F)cc2)c2ccc(F)cc2)CC1,"inconclusive: 24.6 µM [activator, single point]",–
Cc1cc(CC(=O)O)n(C)c1C(=O)c1ccc(Cl)cc1,"inconclusive: 27.6 µM [activator, single point]",–
C#C[C@]1(O)CC[C@H]2[C@@H]3CCc4cc(OC5CCCC5)ccc4[C@H]3CC[C@@]21C,"inconclusive: 38.9 µM [activator, single point]",–
C=C(C)C(=O)O[C@H]1[C@H]2C(=C)C(=O)O[C@@H]2C[C@@H](C)[C@@H]2O[C@@H]2C(=O)[C@](C)(O)[C@@H]1OC(=O)C(=C)C,"inconclusive: 11.7 µM [activator, single point]",–
CC1CCC2C(C)(C)C(O)CCC2(C)C12Cc1c(O)cc3c(c1O2)CN(C(CCCN=C(N)N)C(=O)O)C3=O (centres undefined),"inconclusive: 14.7 µM [activator, single point]",–
CC(=O)Nc1cccc(-c2csc(Nc3cc(C)ccn3)n2)c1,"inconclusive: 10.7 µM [activator, partial curve, poor fit]",–
CC(=O)O[C@@H]1CC[C@@]2(C)C(CC[C@]3(C)C2[C@H](O)C=C2[C@H]4[C@@H](C)[C@H](C)CC[C@]4(C)CC[C@]23C)[C@@]1(C)C(=O)O (some centres undefined),"inconclusive: 0.738 µM [activator, partial curve, poor fit]",–
COC(=O)[C@@H]1C2CC3c4[nH]c5ccccc5c4CCN3CC2CC[C@@H]1O (some centres undefined),"inconclusive: 8.49 µM [activator, single point]",–
CNC1(C)C2CCC(C2)C1(C)C (centres undefined),"inconclusive: 6.92 µM [activator, single point]",–
COc1cc(C(C)=O)ccc1O[C@@H]1O[C@H](CO[C@@H]2OC[C@@H](O)[C@H](O)[C@H]2O)[C@@H](O)[C@H](O)[C@H]1O,–,inactive: 9.16%
C=C(C)C(=O)OC1C(OC(C)=O)/C(C=O)=C\CC/C(CO)=C/C2OC(=O)C(=C)C21 (centres undefined),"inconclusive: 18.5 µM [activator, single point]",–
C=C1CCC2C(C)(C(=O)OC)CCCC2(C)C1CCC1=CCOC1=O (centres undefined),"inconclusive: 2.09 µM [activator, single point]",–
